Measurements reported in the supplement of paper PMC11417369.
± gives the standard deviation of the averaged measurements. Some of the results follow.

These sequences were tested on PfAP2-LT AP2 domain (GST-tagged) (assay: gcPBM binding intensity (ln(normalized median fluorescence intensity)); higher = stronger DNA binding).
In short: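 An Agilent 4 × 180k array carrying primer-extended double-stranded 36-bp intergenic genomic probes and negative controls received GST-tagged P. falciparum DNA-binding domains expressed in E. coli, about 25 μg on average, for 1 h. The binding buffer contained 1× PBS, 1% milk, 0.2 mg/ml BSA, 0.5% salmon testes DNA and 0.03% Triton X-100. Binding intensity is the top Masliner-normalised natural-log median intensity across replicate spots of either probe orientation, read after Alexa488 anti-GST antibody staining and a 488 nm scan.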

Sequence | gcPBM binding intensity (ln)
CCACGTATAATATGTACACACACATAAATACAAAAA [CACACA_site4660] | 9.62 ± 0.49
TAAAAAATGTTATATACACACAGTATAAAAAAAAAT [CACACA_site7808] | 9.04 ± 0.45
AATATTCACATTTGTTGTACATTCCTAGTTATATAA [XGTACX_site491] | 8.86 ± 0.38
AAAAAATTTCAAATAACACACACTAATATATATATG [CACACA_site1426] | 9.05 ± 0.33
TAAATATATAATTGTAGTACTGTTTTATGTTCATAA [XGTACX_site1020] | 8.6 ± 0.35
TAAACAGATATATTTTGTACATATTGTATATTTTGT [XGTACX_site713] | 8.84 ± 0.47
AAGGAAAATTTTTGGTGTACACAAAAAAATCCAAAA [XGTACX_site3596] | 8.86 ± 0.58
ACACATATGACAAATAGTACATAAATATATAAATAT [XGTACX_site7141] | 9.22 ± 0.48
TTAATATATTATATTTGTACATATATATATATACAA [XGTACX_site4798] | 8.56 ± 0.35
AAATTGTGTTCATCAGCACACACAACATCATGTAAT [CACACA_site8556] | 9.38 ± 0.43
AATAAATCTTTTTGTTGTACTAAAAATATTATTAGC [XGTACX_site3335] | 8.41 ± 0.35
CGAAAGAAAAAAAGCACACACAGTTTTGAGCAATGA [CACACA_site2109] | 9.18 ± 0.46
ACAAAAAAGTAAAAAGTGCATGTAAAATATAAGTAT [GTGCAC_site9438] | 9.24 ± 0.48
TATAAATAAATATGTACACACATATATACCTTTCAT [CACACA_site7291] | 8.99 ± 0.42
AATAATTAACAAAAAAAAAAAAAAAAAAAAAAAAAA [GTGCAC_negctrl_site255] | 8.35 ± 0.24
TATGTATTATATATTTGTACTCATTCTAATTCCTTC [XGTACX_site7294] | 8.91 ± 0.53
TATCTTTATATATAGTGTACACATTAAACAAATCTC [XGTACX_site7381] | 8.75 ± 0.27
TATTAATGATAAGAATATTTTATATGATACATGCAT [CACACA_negctrl_site923] | 8.8 ± 0.51
TTTAGTTTTTATATAGCACACATATTGTGATTATGT [CACACA_site8316] | 9.01 ± 0.38
AATTTATAAAAGAAGAGGACACATATAAATATAAAT [XGTACX_site59] | 8.78 ± 0.52
ATATTCATATATTTACGTACATACATTTATATATTT [XGTACX_site7644] | 9.11 ± 0.52
ACATATATGTATAATACACACACTAATATATAATTG [CACACA_site1966] | 9.52 ± 0.19

Sequence | gcPBM binding intensity (ln)
ATTTAAAAAAAAACGGAATTTTTTTTTTTTTTAAAG [XGTACX_negctrl_site91] | 8.11 ± 0.52
TATATTAATGTTCATAGTACGTATGATTAGGAAAAA [XGTACX_site616] | 8.64 ± 0.45
GGAAAGACAGTTCACAGTACCCAGGAAATCTGCGGA [XGTACX_site4933] | 8.8 ± 0.61
TAATACAGATTAAAAGGTACACTTATTTGGTATTAT [XGTACX_site4966] | 8.81 ± 0.38
TTAATATGAATTATTACATGCAACTAAATATATTTA [TGCATGCA_site490] | 8.38 ± 0.44
ACAAAATATATAGACACACAAACACAAATATGTTTT [CACACA_site3016] | 9.09 ± 0.46
ATACAATTCTTACATTGTACTTTTTTTTTTTATCAC [XGTACX_site6327] | 8.83 ± 0.54
TGTATATCACATGAGAGGTGGAGATGGGGATAAATA [CACACA_negctrl_site1148] | 9.01 ± 0.13
TACAACCTTTAGACAAGTACAAGAATTATATGTGGC [XGTACX_site4581] | 8.82 ± 0.39
ACTAAAAAAATAAACACACAGATTTATATAATATAT [CACACA_site4884] | 8.89 ± 0.45
TCTATACCTATTCTTACACACATATGTATAAATATA [CACACA_site6407] | 9.04 ± 0.36
TTGACAACTCTTTTCATACACACAAAAAAAAAAAAA [CACACA_site2362] | 8.63 ± 0.36
AATTTGATAATATCATGTACATGAAAGAATTCATGA [XGTACX_site8463] | 8.7 ± 0.39
GTTAAAAGAAAAATATGTACATAAAAAAATTAGAAA [XGTACX_site578] | 8.71 ± 0.57
CTCTTGTTTCCATATAGTACGTAATAATATATACAA [XGTACX_site2428] | 8.71 ± 0.35
TATATATATATATGATGTACACATTTTATTATTTGT [XGTACX_site1147] | 9.54 ± 0.25
TTTTCAATTAAAAAAAAATTATATTTTATTATTACA [CACACA_negctrl_site142] | 7.96 ± 0.49
AAGATGGTAAAGAATTGTACGCGCATATATATATTT [XGTACX_site3904] | 9.15 ± 0.48
TACATAAATTAAAACACACACACACCCAAAAAAAAA [CACACA_site2261] | 9.9 ± 0.22
AAAAAATAAAAAGATACACACATATGTATAATATAC [CACACA_site1496] | 9.22 ± 0.46
GTGTATATTATTTTATCACACATGTACATATGTTAA [CACACA_site5473] | 8.99 ± 0.35
AATAAAAAAATATGAAATTATGACATATAGCATTTG [TGCATGCA_negctrl_site160] | 8.57 ± 0.52
